# In PubChem BioAssay AID1508642 (National Center for Advancing Translational Sciences (NCATS), 2021):
# About 200 (0.47%) of roughly 43,000 compounds were called active. About 12% were inconclusive and are not listed. The call rests on the fitted dose curve; in most records, active means well fitted cell-killing curve with a large enough effect; inconclusive means small, poorly fitted or top-dose-only effect, or effect the other way; inactive means flat fitted curve, though single readings scatter. The list shows a part of the results.
# Assay: Cell viability qHTS assay in S16 Pmp22-F2sN cells; further: nearly all actives have a fitted effect of over 65% in size
# Conditions: S16 Pmp22-F2sN Schwann cells viability, CellTiter-Glo, 24 h; series mostly up to 57.5 µM; activity change, negative = cytotoxicity: at the top concentration
# Summary of the method: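 Viability was measured by CellTiter-Glo luminescence (15 min, room temperature). This followed 24 h at 37 °C of compound exposure (23 nL pin transfer) in S16 Pmp22-F2sN Schwann cells, 500-1,000 per well.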
# On the % scale 0 is the no-effect control and ±100 the full control effect.
row,Structure (SMILES),"activity change, negative = cytotoxicity"
1,CCc1ccccc1NC(=O)CC(C)S(=O)(=O)c1ccc2c(c1)NC(=O)CO2 (stereo unspecified),inactive: 13.4%
2,CCc1ccc2occ(CC(=O)Nc3nnc(C)s3)c2c1,inactive: 2.97%
3,O=C(CSc1nc2c([nH]c3ccccc32)c(=O)n1-c1ccccc1)NCc1ccc(F)cc1,inactive: 0.546%
4,COc1ccc(S(=O)(=O)N2CCC(C(=O)NC(C)c3ccccc3)CC2)cc1 (stereo unspecified),inactive: 4.98%
5,Cc1nc(N2CCCC2)ncc1C(=O)NCc1ccc(Cl)cc1,inactive: -11.9%
6,CC1=C(c2ccc(F)cc2)S(=O)(=O)N=C1N1CCC(C(=O)NCCc2ccccc2)CC1,inactive: 4.68%
7,O=C(NCc1ccc(Cl)cc1)c1cc2ccc3cccnc3c2[nH]1,inactive: 9.66%
8,Cc1ccc(NC(=O)NCCOCCn2c(=O)oc3ccccc32)c(C)c1,inactive: 3.46%
9,COc1cccc(-n2c(SCC(=O)Nc3cccc(C)c3)nc3c([nH]c4ccccc43)c2=O)c1,inactive: -6.26%
10,O=C(CSc1ccccc1)N1CCc2c([nH]c3ccccc23)C1c1ccc(Cl)cc1 (stereo unspecified),inactive: -23.1%
11,Cc1cccc(S(=O)(=O)c2cn(C)c3cc(N4CCCCCC4)c(F)cc3c2=O)c1,inactive: -0.891%
12,Cc1cccc(NC(=O)c2cc(CN3CCOCC3)on2)c1C,inactive: 10.4%
13,COc1cccc(C(=O)c2cn(CC(=O)Nc3cc(Cl)c(OC)cc3OC)c3nc(C)ccc3c2=O)c1,inactive: 2.59%
14,Cc1cccc(C)c1NC(=O)NCCCN1CCN(c2ccccc2)CC1,inactive: -24%
15,CC(C)(C)c1ccc(C(=O)NNc2ncnc3c2cnn3-c2ccc(Cl)cc2)cc1,inactive: 1.54%
16,COc1cc(CN(C(=O)COc2ccc(Cl)cc2)c2ccccn2)cc(OC)c1OC,inactive: -1.12%
17,Cc1ccc(C)c(NC(=O)C2CCN(c3ncnc4c3nc3n4CCCCC3)CC2)c1,inactive: -6.63%
18,Cc1ccc(C)c(NC(=O)CCCn2c(C)c3cnn(-c4ccccc4)c(=O)c3c2C)c1,inactive: -7.26%
19,CCc1ccc(NC(=O)CSc2nc(C)c(C(=O)Nc3ccc(Cl)cc3)c(-c3ccc(OC)cc3)c2C#N)cc1,inactive: -1.28%
20,CNC(=O)C1CCC(Cn2c(=O)c3sccc3n(CC(=O)NCc3ccc(C)cc3)c2=O)CC1 (stereo unspecified),inactive: 1.01%
21,Cc1cc(C)c2c(n1)SCC(=O)N2CC(=O)Nc1ccccc1C,inactive: -0.459%

row,Structure (SMILES),"activity change, negative = cytotoxicity"
1,Cn1c(=O)oc2cc(S(=O)(=O)N3CCCC(C(=O)NCc4ccccc4Cl)C3)ccc21 (stereo unspecified),inactive: 2.58%
2,COc1ccc(NC(=O)Cn2c(=O)oc3cc(Cl)ccc32)c(OC)c1,inactive: 10.1%
3,O=C(CSc1nc2c([nH]c3ccccc32)c(=O)n1-c1ccccc1)N1CCCc2ccccc21,inactive: 2.35%
4,Cc1ccccc1C(=O)Nc1sc2c(c1C(=O)O)CCC(C(C)(C)C)C2 (stereo unspecified),inactive: -4.33%
5,O=C(CSc1nc2c([nH]c3ccccc32)c(=O)n1-c1ccc(F)cc1)NCC1CCCO1 (stereo unspecified),inactive: 5.38%
6,COc1ccc(-c2cn3c(n2)sc2cc(C(=O)Nc4c(C)cccc4C)ccc23)cc1,inactive: 3.02%
7,Cc1ccc(CNC(=O)C2(c3cccs3)CCOCC2)cc1,inactive: 14.7%
8,Cc1cc(C)cc(Nc2nc3ccccc3nc2-n2nc(C)cc2C)c1,inactive: -12.5%
9,CCOC(=O)N1CCc2c(sc3c2c(=O)n(Cc2ccccc2)c(=O)n3CC(=O)Nc2cccc(C)c2)C1,inactive: -2.29%
10,CCOc1ccc(NC(=O)CSc2ncnc3c2sc2ccccc23)cc1,inactive: -7.93%
11,COc1ccc(C(=O)n2nc(-c3ccc(Cl)cc3)nc2NCc2ccco2)cc1,inactive: 3.61%
12,CN(C)S(=O)(=O)c1ccc(C(=O)Nc2c(C(=O)Nc3ccc(F)cc3)oc3ccccc23)cc1,inactive: 5.2%
13,CCc1ccc(NC(=O)c2cc3c(COC(C)=O)cnc(C)c3oc2=O)cc1,inactive: 0.711%
14,CCCCC(=O)Nc1cc(-c2nc3cccnc3s2)ccc1C,inactive: -1.93%
15,O=C(c1ccccc1)c1ccc2nc(N3CCN(c4ccccc4)CC3)c3nncn3c2c1,inactive: -0.836%
16,Cc1ccc(CNC(=O)c2ccc3c(c2)NC(=O)C(CS(=O)(=O)Cc2ccc(F)cc2)N3)cc1 (stereo unspecified),inactive: -2.18%
17,COc1ccccc1C(=O)Nc1c(C(=O)N2CCN(c3ccccc3F)CC2)oc2ccccc12,inactive: 7.04%
18,COc1ccc(NC(=O)CCCSc2nc(-c3ccco3)cc(C(F)(F)F)n2)cc1,inactive: 3.3%
19,Cc1ccc(NC(=O)c2ccc(COc3ccccc3Cl)o2)cc1,inactive: -9.39%
20,Cc1cc2c(cc1S(=O)(=O)NCc1ccccc1)OCC(=O)N2,inactive: 0.579%
21,CCC1CCCCN1CCCNC(=O)c1cn(CC)c2ccc(S(=O)(=O)N(C)C3CCCCC3)cc2c1=O (stereo unspecified),inactive: -20.1%

row,Structure (SMILES),"activity change, negative = cytotoxicity"
1,Cc1nc2ccc(S(=O)(=O)CCC(=O)Nc3ccc(C(C)C)cc3)cc2s1,inactive: -2.15%
2,CCS(=O)(=O)N1CCC2(CC1)OC(=O)C(C)=C2C(=O)NCc1cccc(Cl)c1,inactive: 27.6%
3,CCn1c(COc2cccc(C)c2)nc2ccccc21,inactive: -3.88%
4,O=S(=O)(c1ccc(Br)cc1)c1nc(-c2cccs2)oc1SCc1ccc(F)cc1,inactive: -6.38%
5,Cc1[nH]c2ccc(C(=O)Nc3ccc(F)cc3)cc2c1C,inactive: -28.8%
6,Cc1ccccc1CN1C(=O)c2ccccc2S(=O)c2ccc(C(=O)NCc3ccco3)cc21 (stereo unspecified),inactive: -3.07%
7,CCN(C(=O)CCS(=O)(=O)c1ccc2c(c1)oc(=O)n2C)c1ccc(OC)cc1,inactive: -20.4%
8,Cc1ccc(NC(=O)CSc2nc3c(c(=O)[nH]2)CCC3)cc1Cl,inactive: -6%
9,CCn1c(SCC(=O)Nc2ccccc2)nc2c([nH]c3ccccc32)c1=O,inactive: 21.1%
10,CC(C)CCNC(=O)CCC(=O)N1Cc2ccccc2Oc2ncccc21,inactive: -0.126%
11,COc1cc2c(cc1NC(=O)COc1ccc(Br)cc1C)oc1ccccc12,inactive: 0.182%
12,Cc1ccc(C)c(N2CCN(C(=O)C3CCN(C(=O)c4cc5sccc5n4C)CC3)CC2)c1,inactive: -24.8%
13,COc1cccc(-n2c(=O)c3cc(OC)c(OC)cc3n(CC(=O)Nc3ccccc3)c2=O)c1,inactive: 13.4%
14,O=C(c1ccc2c(c1)N(Cc1ccc(F)cc1)C(=O)c1ccccc1S2(=O)=O)N1CCCCCC1,inactive: -11.9%
15,CCOc1ccc(NC(=O)CSC2=Nc3ccccc3C3=NC(CC(=O)NCc4ccccc4OC)C(=O)N23)cc1 (stereo unspecified),inactive: 6.13%
16,Cc1ccc(N2CC(NC(=O)c3ccco3)CC2=O)cc1 (stereo unspecified),inactive: 2.69%
17,Cc1ccc(S(=O)(=O)Nc2ccc3[nH]c(=O)sc3c2)cc1C,inactive: -16.1%
18,O=C(c1ccc2c(c1)N(Cc1ccc(Cl)cc1)C(=O)c1ccccc1S2(=O)=O)N1CCC(Cc2ccccc2)CC1,inactive: 20.4%
19,Cc1ccc(S(=O)Cc2ccc(C(=O)NC3CCCCCC3)o2)cc1 (stereo unspecified),inactive: -6.82%
